Consider 83 compounds from ChEMBL document CHEMBL1201862, “PubChem BioAssay data set” (2004).

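In this assay, cells in 96-well plates receive the compound at five concentrations for 48 hours. Endpoints are linearly interpolated between the surrounding concentrations. Abbreviation: GI50, concentration required for 50% inhibition of growth.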 Active and inactive are the calls of the source. Rule as the data show it: active = GI50 up to about 1.1 µM and inactive = higher.

The test system of the test is NCI-H322M. The test is described as follows: NCI tumour cell line growth inhibition, 48 h.
Turning to `CC1=NC(C(=O)O)Cc2c1[nH]c1ccccc21` (stereo not drawn), the GI50 was inactive: > 100 µM.

With `CC1(C)CC2(C)OC(=N)C1(C#N)C2(C#N)C#N` (stereo not drawn), the GI50 is inactive: 14.3 µM.

For `O=C(O)c1ccc(NCc2nc3cc4ccccc4cc3[nH]2)cc1`, the GI50 is inactive: > 100 µM.

With `COC(=O)C1=COC(C)C2CN3CCc4c([nH]c5cc(OC)c(OC)cc45)C3CC12` (stereo not drawn), the GI50 is inactive: > 100 µM.

On to `CN(CC(=O)O)Cc1c[nH]c2ccccc12`, for which the GI50 is inactive: > 100 µM.

Take `O=C1C(c2c(O)[nH]c3ccc(Br)cc23)=Nc2ccc(Br)cc21`: the GI50 is inactive: 22.6 µM.

Consider `O=C(OCc1ccccc1)N1CCNCCN(C(=O)OCc2ccccc2)CCNCC1`, for which the GI50 is inactive: 13.7 µM.

Regarding `CCCCCCCCCCCCCCCC(=O)NCC(OCC)OCC`, the GI50 was inactive: > 100 µM.

For the compound `NP1(Oc2ccc(F)cc2)=NP(N)(Oc2ccc(F)cc2)=NP(Oc2ccc(F)cc2)(Oc2ccc(F)cc2)=N1` (stereo not drawn), the GI50 is inactive: 3.66 µM.

Consider `Cc1nc2cc(Cl)c(N)cc2[nH]1`, for which the GI50 is inactive: > 100 µM.

In the case of `CC(=O)OCCOCn1c2c(c(=S)[nH]c1=O)CCC2`, the GI50 was inactive: > 100 µM.

For `O=C1NC(=S)N/C1=C\c1cc2c(=O)c3ccccc3sc2s1`, the GI50 was inactive: > 100 µM.

With `N#C/C(=C1/c2cc([N+](=O)[O-])ccc2-c2c1cc([N+](=O)[O-])cc2[N+](=O)[O-])N1CCCCC1`, the GI50 is inactive: > 100 µM.

As to `C[C@@H]1S[C@H](c2c(F)cccc2Cl)n2c1nc1ccccc12`, the GI50 was inactive: 17.3 µM.

Take `Cc1ccc(NC(=O)CC2SC(=N)NC2=O)cc1C` (stereo not drawn): the GI50 was inactive: > 100 µM.

On to `CC1CC2C(=O)N(c3ccccc3)C(=O)C2c2[nH]c3ccccc3c21` (stereo not drawn), for which the GI50 was inactive: > 100 µM.

As to `O=C1Nc2ccccc2/C1=C1/Nc2ccccc2/C1=N\OCCOC1OCC(O)C(O)C1O` (stereo not drawn), the GI50 is inactive: > 100 µM.

Regarding `CC(O)C1OC(O)C2OC(C)(C)OC12` (stereo not drawn), the GI50 is inactive: > 100 µM.

Consider `Nc1nc(S)c2c(N)n[nH]c2c1C(=O)Nc1ccc(Cl)cc1`, for which the GI50 was inactive: 87.1 µM.

As for `CCN1C(=O)/C(=C\c2coc3ccccc3c2=O)SC1=S`, the GI50 was inactive: > 100 µM.

As to `Nc1ccc(Oc2ccc(C34CC5CC(C3)CC(c3ccc(Oc6ccc(N)c(O)c6)cc3)(C5)C4)cc2)cc1O`, the GI50 is active: 0.755 µM.

As to `CC1(c2ccccc2)CC(c2cccc([N+](=O)[O-])c2)=NO1` (stereo not drawn), the GI50 was inactive: > 100 µM.

With `Clc1ccc(/C=N/C23CC4CC(CC(C4)C2)C3)cc1Cl`, the GI50 is inactive: > 10 µM.

Take `CC(C)C(Br)C(=O)NCC(=O)O` (stereo not drawn): the GI50 was inactive: > 100 µM.

As to `C=C1C[C@@H]2O[C@H]3[C@H]4[C@@H](C[C@@H](C)[C@@H](OC(C)=O)[C@H]42)[C@@H](C)CO[C@@]3(C)[C@H](OC(C)=O)C[C@H]1O`, the GI50 is inactive: > 100 µM.

Consider `CC1=NN(C(=O)Cc2ccccc2)C(=O)/C1=C\c1ccc([N+](=O)[O-])cc1`, for which the GI50 is inactive: > 100 µM.

Consider `COc1ccc2c(c1)OCCc1cn[nH]c1-2`, for which the GI50 was inactive: 82.6 µM.

As to `CCN(CC)CCCn1cnc2ncccc2c1=O`, the GI50 was inactive: > 100 µM.

With `Cc1cc(C)c(S(=O)(=O)N(CCCN)OCCCON(CCCN)S(=O)(=O)c2c(C)cc(C)cc2C)c(C)c1`, the GI50 was inactive: 1.87 µM.

With `COc1ccc(NC(=O)CC/C(CC(=O)C(C)(C)C)=N\NC(=O)C(=O)NN)cc1`, the GI50 was inactive: > 100 µM.

`Cc1cccc2c(N)c3cccc(C(=O)NCCNCCN)c3nc12`: the GI50 was inactive: 2.97 µM.

As for `CC(=O)Nc1cc2cc(NS(=O)(=O)c3ccc(Cl)c(Cl)c3)ccc2oc1=O`, the GI50 is inactive: 49.7 µM.

`CN1Cc2c(ccc3c2OCO3)[C@@H]2[C@H](O)Cc3cc4c(cc3[C@@H]21)OCO4`: the GI50 was inactive: 4.8 µM.

With `N=c1c2ccccc2nc2oc3ccccc3n12`, the GI50 was inactive: 26 µM.

`CSC1=NS(=O)(=O)c2cc(C(=O)NN(C)C(=O)c3cc4c(cc3Cl)SC(SC)=NS4(=O)=O)c(Cl)cc2S1`: the GI50 was inactive: > 10 µM.

In the case of `NCC1(N2CCOCC2)C2CCCC21CNc1ccccc1` (stereo not drawn), the GI50 was inactive: > 100 µM.

As to `C=C(C)C1CCC(C(=O)O)CC1` (stereo not drawn), the GI50 is inactive: > 100 µM.

Take `COc1ccc(O[C@H](COCc2ccccc2)C[C@@H]2COC(C)(C)O2)cc1`: the GI50 was inactive: > 100 µM.

With `S=C(Nc1ccc(Cl)cc1)SC1CCCCC1`, the GI50 was inactive: 28.7 µM.

In the case of `CN(C)N1C(=C(C#N)C#N)C(c2ccccc2)CC1C#N` (stereo not drawn), the GI50 was inactive: > 100 µM.

Turning to `S=C1/C(=N/c2ccccc2)N(c2ccccc2)/C(=N\c2cccc[n+]2Cc2ccccc2)N1c1ccccc1`, the GI50 was inactive: 20 µM.

With `Cn1c(-c2ccccc2)c/c(=N\NS(C)(=O)=O)c2cc(S(=O)(=O)O)ccc21`, the GI50 was inactive: > 100 µM.

In the case of `COC(C/C(=C/CO[Si](C(C)C)(C(C)C)C(C)C)C(=O)N(COCC[Si](C)(C)C)c1ccccc1I)OC`, the GI50 is inactive: 59.7 µM.

In the case of `N#Cc1ncn(-c2ccccc2)c1N`, the GI50 is inactive: 36.8 µM.

As to `Nc1ccccc1C(=O)/C=C/c1ccccc1O`, the GI50 is inactive: 60.8 µM.

On to `N#Cc1nc(C#N)n(C(=O)c2ccccc2)c1NC(=O)c1ccccc1`, for which the GI50 is inactive: > 100 µM.

On to `C=C(CCOC)CCC1CCCCC(=C)C1=O` (stereo not drawn), for which the GI50 was inactive: > 100 µM.

Turning to `CSC(=S)NN=C1CCCCC1`, the GI50 was inactive: 13.2 µM.

`O=CC1=CCCC2(C1)OCCO2`: the GI50 was inactive: > 100 µM.

With `Cc1noc(NS(=O)(=O)c2ccc(NC(=O)c3ccc4nc5ccccc5c(Nc5ccc(S(=O)(=O)Nc6onc(C)c6C)cc5)c4c3)cc2)c1C`, the GI50 is inactive: > 100 µM.

Regarding `NC(=O)/C=C/NC(=O)/C=N\O`, the GI50 was inactive: > 100 µM.

Take `CCOC(=O)C1(C(=O)OCC)C[C@]23OCCC(=O)[C@H]2[C@H]2C(=O)OC(C)(C)O[C@]23C1`: the GI50 was inactive: > 100 µM.

As for `Cc1ccc(S(=O)(=O)N2CCN3C(=O)c4ccccc4C32c2ccc(F)cc2)cc1` (stereo not drawn), the GI50 is inactive: > 100 µM.

Take `O=C(CC1SC(Nc2ccccc2Cl)=NC1=O)Nc1ccc(Cl)cc1Cl` (stereo not drawn): the GI50 was inactive: > 100 µM.

As to `CN(C)c1nc2oc(-c3ccccc3)c(-c3ccccc3)c2c2nncn12`, the GI50 was inactive: > 100 µM.

In the case of `COC(=O)C(=O)C1CCCCC(C2=NC3NN=C(N)N3C2=O)C1=O` (stereo not drawn), the GI50 is inactive: > 100 µM.

With `O=[N+]([O-])/C(C(Cl)=C(Cl)Cl)=C(\Nc1cccc2ccccc12)n1nnc2ccccc21`, the GI50 is inactive: 87.1 µM.

For the compound `CC(=O)OCC1OC(n2c(N)c(C#N)c(-c3ccc(C)cc3)c(C#N)c2=S)C(OC(C)=O)C(OC(C)=O)C1OC(C)=O` (stereo not drawn), the GI50 was inactive: 16 µM.

Regarding `CCC[C@H](C)C[C@H](C)C[C@H](C)/C=C(\C)[C@@H](O)[C@@H](C)C(=O)CC`, the GI50 is inactive: 22.7 µM.

As for `CCC1=CC2CN3CCc4c([nH]c5ccccc45)C(C(=O)OC)(C2)C13` (stereo not drawn), the GI50 was inactive: 44.9 µM.

On to `O=C1Oc2ccccc2C(=O)/C1=C/N1C(=O)/C(=C/c2ccc([N+](=O)[O-])cc2)SC1=S`, for which the GI50 is inactive: 33.7 µM.

Take `Cc1cc(NS(=O)(=O)c2ccc(NC(=O)c3ccc4[nH]c5ccccc5c(=O)c4c3)cc2)no1`: the GI50 was inactive: 35.4 µM.

With `O=C(O)C1CSC2(CCCN(Cc3ccccc3)C2)N1` (stereo not drawn), the GI50 was inactive: > 100 µM.

Regarding `N#CC(Sc1ccccc1)C(N)=O` (stereo not drawn), the GI50 was inactive: > 100 µM.

For `C/C(=N\Nc1nc2ccccc2s1)c1ncccn1`, the GI50 is active: 0.0376 µM.

In the case of `COc1cc(NCC(C#N)C#N)ccc1/N=N/c1ccc([N+](=O)[O-])cc1`, the GI50 is inactive: > 100 µM.

On to `Nc1nc(Cl)cc(NCC2(CO)CCC(CCc3ccccc3)C2)n1` (stereo not drawn), for which the GI50 is inactive: 11.9 µM.

As for `Cn1cnc([N+](=O)[O-])c1Sc1nc2cccnc2[nH]1`, the GI50 was inactive: > 100 µM.

Take `OB(O)c1ccccc1C#Cc1ccccc1B(O)O`: the GI50 is inactive: 14.3 µM.

Turning to `Cc1cc2nc(N3C(=O)/C(=C/c4ccc(Cl)cc4)N=C3c3ccccc3)sc2cc1C`, the GI50 was inactive: 50 µM.

As to `N/C(=N\O)N/N=C\c1c(O)cc(O)cc1O`, the GI50 was inactive: > 100 µM.

`NS(=O)(=O)c1cc(Cl)c(NC(=S)NC(=O)Nc2ccc(Cl)c(Cl)c2)c(Cl)c1`: the GI50 is inactive: 85.3 µM.

As to `Cc1cc(C)nc(NS(=O)(=O)c2ccc(Nc3c4ccccc4nc4c(C(=O)NCCN(C)C)ccc(Cl)c34)cc2)n1`, the GI50 was active: 0.962 µM.

As to `C1=N/CCNCCNCC/N=C/c2ccccc2OCc2cccc(n2)COc2ccccc2/1`, the GI50 was inactive: > 100 µM.

As for `CC1(C)CN(CC(=O)O)CC(Cc2ccc(OCC(=O)O)cc2)N(CC(=O)O)CC(C)(C)SS1` (stereo not drawn), the GI50 was inactive: > 100 µM.

Regarding `COc1ccc2c(c1OC)C[C@@H]1c3c(cc4c(c3-2)OCO4)CCN1C`, the GI50 was inactive: 29.6 µM.

Turning to `COc1cccc2c1C(=O)c1c(O)c3c(c(O)c1C2=O)CC(O)(C(=O)CO)CC3OC1CC(N2CCOCC2C#N)C(O)C(C)O1` (stereo not drawn), the GI50 is active: > 0.01 µM.

As for `CC(=O)OC(C)(C)[C@@H]1CC[C@]2(C)/C=C/[C@H](C)C[C@@H](O)C3=C(C)C[C@@H](O3)C12` (stereo partly drawn), the GI50 was inactive: > 100 µM.

In the case of `NC(=O)CNC(=O)[C@@H]1CC(OCCC(=O)O)CN1C(=O)C1CCCN1C(=O)OCc1ccccc1` (stereo partly drawn), the GI50 was inactive: > 100 µM.

As for `COC(=O)C1C(=O)O[C@@H](c2ccc(OC)cc2OC)C1C(=O)OC` (stereo partly drawn), the GI50 is inactive: > 100 µM.

For the compound `Clc1cccc2[nH]ncc12`, the GI50 is inactive: > 100 µM.

As to `COc1cc(/C=C2\CC3C4CC[C@H]5C[C@@H](O)CC[C@]5(C)C4CC[C@]3(C)\C2=N\O)cc(OC)c1OC` (stereo partly drawn), the GI50 was inactive: 27 µM.

Consider `CCOc1ccc(/C=C\c2cc(OC)c(OC)c(OC)c2)cc1`, for which the GI50 is active: 0.0542 µM.
